14 molecules from PMC12136788 can be followed below.

Where a chain is given by its changes, count along the chain named. This is one part of the list.

To fix the notation:
T1: UNK ZnF1-3 (human, UniProt Q9C0B0 31-174)
T1 sequence: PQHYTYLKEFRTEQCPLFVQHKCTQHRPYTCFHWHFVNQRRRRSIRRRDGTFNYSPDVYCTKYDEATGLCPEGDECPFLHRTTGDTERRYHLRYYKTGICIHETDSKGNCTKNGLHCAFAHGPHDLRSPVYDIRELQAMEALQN

B1: chr9:95013113:95013114:-_ENSG00000196305_ENST00000443024|hu_hu|hu_hu_hu_mus_False|18_48 (ssRNA)
RNA: GGGAGUUCUACAGUCCGACGAUCCUCAGUCAGAAAGGGCGUGUAAGGGGCCAUCAGUCUGCACAGAGAAAGCAGGACACUGAACAGGGUUUCUAGGGCCAUGACACAGUCUUCCACCCCAUUUUCACCCUUUAACCUCCUCCUCAACAGAGGAUUGAGCAUCA
B2: chr4:144460044:144460045:+_ENSG00000153147_ENST00000283131|hu_mus|hu_hu_hu_mus_False|1_88 (ssRNA)
RNA: GGGAGUUCUACAGUCCGACGAUCACGGUCCAUAGCCUGAAGAUCAACUUGGGGAUUCCAAUCUGAGUCAUAUAAAAUGACUACAUCAGCAGUUGCAAGAUUGAUGCCCAGACCACCAGCACGUGUGCUUAGCAUAAAAACAAACAACAGAGGAUUGAGCAUCA
B3: chrX:71549400:71549401:+_ENSMUSG00000019087_ENSMUST00000019231|mus_hu|mus_mus_mus_hu_False|18_108 (ssRNA)
RNA: GGGAGUUCUACAGUCCGACGAUCGCAAGGAAGAGGAGGAAGCUCUUCAGUCCAGUGCGCUGCAGGGUGGGAAAGCAACAACACGGACACCGUCCCACCCUCAACCCCCCCACUGGCAUGUCACACAACAAUCUGGGUCAAAGACAACAGAGGAUUGAGCAUCA
B4: chr7:44244176:44244177:+_ENSG00000106636_ENST00000223369|hu_mus|hu_hu_hu_mus_False|98_108 (ssRNA)
RNA: GGGAGUUCUACAGUCCGACGAUCACUAUCAUUCCGGACGUAGACGUGGCAAAGAUACUCUUGUUCUUUGACAGAAGCUCUGCUGCCUUUCCCCGAGCGUUCCACAAUCAGUUGACUUGUAAAGGUCAUGAAUUCCUGCACACUCAACAGAGGAUUGAGCAUCA
B5: chr5:128448638:128448639:+_ENSG00000066583_ENST00000173527|hu_mus|hu_hu_hu_mus_False|58_58 (ssRNA)
RNA: GGGAGUUCUACAGUCCGACGAUCGGCACUCGCCUUAAUUAGGUUCUGAAUUUCCUUGAACUUCGGGUGGUCUUUGUCAGCUACCAGCUGUAGGAGGACAGCCUCACUAGUGGUCACGAUGAUCCCAGUGCGGGCAAGACGCUCCAACAGAGGAUUGAGCAUCA
B6: chr1:66463027:66463028:+_ENSMUSG00000015222_ENSMUST00000114013|mus_mus|mus_mus_mus_hu_True|18_18 (ssRNA)
RNA: GGGAGUUCUACAGUCCGACGAUCUUUUCUUUCAGGAGUGGAAAUUCUGCCUCUCCCGGUUUUAAAAGGCUUUUCUUUUCUAUGUUUCUCAAGAGAUGAUCUCCGAGCUUCCUUUUCAGCUCUCUCCUCUUUAGGAAUAGUUUCCAACAGAGGAUUGAGCAUCA
B7: chr4:156296975:156296976:-_ENSG00000164114_ENST00000311277|hu_mus|FALSE|FALSE (ssRNA)
RNA: GGGAGUUCUACAGUCCGACGAUCUCCUGAAAGGAAGUUCUCUUGGUAGCCUUUGGACUCUUGGUGUACGCCAAAGUUGUGCUGAAGAUUUCAUCGGACAUGGUGUGUCCUUUUUCUCUGCUUUUAUACAACAGUUAAUAAAUUCAACAGAGGAUUGAGCAUCA
B8: chr7:65617436:65617437:+_ENSG00000241258_ENST00000415001|hu_mus|FALSE|FALSE (ssRNA)
RNA: GGGAGUUCUACAGUCCGACGAUCGACCCCAAAGCACAAAGAUUUCUUUUCAUCUUAUUUUUGUGAUUUUUUUCCCCCAACAAAUCCUGAGAUCAGGCAUACUGAGAGAGGGGGUCAGGCCAAAUAAAGAGUUCUCUGAACAUCCAACAGAGGAUUGAGCAUCA
B9: chr14:78183846:78183847:+_ENSG00000119705_ENST00000557342|hu_hu|hu_hu_hu_mus_False|48_88 (ssRNA)
RNA: GGGAGUUCUACAGUCCGACGAUCUCUCAGAAAUCUUUCUUCAUCAGCAUCAUCAGAUCCGUGCAAAGCCUUUGCUCUUUGAGCUUGAACCUGGACCUAUGGGAGGGAAAGCACUGUCAGAAAAGGUAAUUUUUUUUUUAAAGACAACAGAGGAUUGAGCAUCA
B10: 98015970_98016090_1530_3pUTR_ENSMUSG00000041773_ENSMUST00000041623|mouse|control|control (ssRNA)
RNA: GGGAGUUCUACAGUCCGACGAUCAGCAGAUCCAUGGCCAAACCUGGCCACCAGCAUGGGGGCAGCCUUGGACCACUCCUCAUGCAGGGUAUCGUAAACCCAGACAUCUUUUGAGACUCCGUUCUCUGAUCCCCGCCCCCCAGUCAACAGAGGAUUGAGCAUCA
B11: chr9:95013113:95013114:-_ENSG00000196305_ENST00000443024|hu_hu|hu_hu_hu_mus_False|48_108 (ssRNA)
RNA: B1 RNA with C30G, G36A, U121C, U123C
B12: 153235310_153235430_3441_3pUTR_ENSMUSG00000061411_ENSMUST00000109784|mouse|control|control (ssRNA)
RNA: GGGAGUUCUACAGUCCGACGAUCUUUGUGUCUAGCUUGGGUACUGCCUCUGGGAGCAGACAGAAUGCGGUAAGCAAUUGAUAACAGAAAUUCUAGGGUGGCGAUUGUCUCUGCCAAUUUUCAACAUUUUCACAAAUUGCCUGGCAACAGAGGAUUGAGCAUCA
B13: chr21:38862523:38862524:+_ENSG00000157540_ENST00000338785|hu_hu|motif|central (ssRNA)
RNA: GGGAGUUCUACAGUCCGACGAUCUCGGAAAUUGGUGUUUCUCAGCAAGUCAUAGAGGUUGUAGGACAGCAUUUCAAAAACGGAACAGAGAUGGUUUCGAAACAUAAAGUGGCGUUUCAAAUGCACUAUGUAGUAUUUCAUUUCCAACAGAGGAUUGAGCAUCA
B14: chr11:87793471:87793472:-_ENSMUSG00000020483_ENSMUST00000020775|mus_mus|mus_mus_mus_hu_False|48_58 (ssRNA)
RNA: GGGAGUUCUACAGUCCGACGAUCUGGACUUGAAAAUAAAAGAAUAAGCUGGAUCCCCCACCCCCCCACAUUGUCAACCCUAUGCGAGUUCUGAAUGGGCGACUCAUGAAAAUCAGCAGCUCAAACGGCAAUGACCACCCCACCCAACAGAGGAUUGAGCAUCA

This test deals with T1, UNK ZnF1-3. The test can be described thus: nsRBNS (natural sequence RNA bind-n-seq); RBNS binding buffer (assumed for nsRBNS): 25 mM Tris pH 7.5, 150 mM KCl, 3 mM MgCl2, 0.01% Triton X-100, 500 ug/ml BSA, 20 U/ml SUPERase-In, 4 C; UNK is unkempt and MSI1 is Musashi-1; names of the RNAs are library labels; protein concentration not given here; high values mean tight binding.
B1 returned a binding signal of 0.617 enrichment R. Then B2, with 1.32 enrichment R; and B3, with 1.5 enrichment R; and B4, with 0.798 enrichment R. B5 showed a binding signal of 0.845 enrichment R. For B6 the value was 0.349 enrichment R; for B7, 0.543 enrichment R; for B8, 1.42 enrichment R. Then B9, with 1.91 enrichment R; and B10, with 0.937 enrichment R; and B11, with 0.754 enrichment R. Then B12, with 1.06 enrichment R; and B13, with 0.844 enrichment R. With B14, the binding signal stood at 2.04 enrichment R.
